For one assay, the system named is HSkMC. The experiment in a line: cytotoxicity call (relative viability < 0.9). The conditions noted are these: 10 µM.
A further assay relates to HepG2. The experiment in a line: cytotoxicity call (relative viability < 0.9). The note with it: 10 µM.
The subject of the next assay is S. aureus RN4220. The experiment in a line: growth inhibition call (relative growth <= 0.2). The conditions noted are these: 50 µM.

Structures are written as SMILES. The list shows a part of the results.

In the case of `CC(C)NC(=O)N(C)C[C@H]1Oc2c(NS(=O)(=O)c3ccc(Cl)cc3)cccc2C(=O)N([C@@H](C)CO)C[C@H]1C`, the cytotoxicity call in the assay on HSkMC and in the assay on HepG2 was “inactive” throughout. In addition, the growth inhibition call in the assay on S. aureus RN4220 is “inactive”.
Turning to `COc1cc(S(C)(=O)=O)ccc1Nc1nc2ccc(-c3ccc(NC(=O)[C@H](C)c4ccc(F)cc4)cc3)cn2n1`, the cytotoxicity call in the assay with HSkMC and in the assay with HepG2 was “inactive” throughout. The growth inhibition call in the assay with S. aureus RN4220 was “inactive”.
With `C/C=C/c1cccc(-c2nc(C(=O)NCc3ccc(OC)cc3)cc3c2[C@@H](CCO)N([S@](=O)C(C)(C)C)C3)c1`, the cytotoxicity call with HSkMC and in the assay on HepG2 was “inactive” throughout. For the same compound, the growth inhibition call in the assay with S. aureus RN4220 is “inactive”.
Consider `CCS(=O)(=O)Nc1ccc2c(c1)C(=O)N(C)[C@H]1CC[C@@H](CC(=O)NCc3ccccc3F)O[C@H]1CO2`, for which the cytotoxicity call in the assay with HSkMC and in the assay on HepG2 was “inactive” throughout. For the same compound, the growth inhibition call in the assay with S. aureus RN4220 is “inactive”.
In the case of `Cc1noc(C)c1S(=O)(=O)Nc1cccc2c1O[C@H](CN(C)C(=O)NC(C)C)[C@H](C)CN([C@@H](C)CO)C2=O`, the cytotoxicity call in the assay with HSkMC and in the assay with HepG2 was “inactive” throughout. Moreover, the growth inhibition call with S. aureus RN4220 was “inactive”.
As to `C[C@@H]1CN([C@H](C)CO)C(=O)c2cccc(NC(=O)Nc3ccc(C(F)(F)F)cc3)c2O[C@@H]1CN(C)CC1CCCCC1`, the cytotoxicity call with HSkMC and with HepG2 was “active” throughout. The growth inhibition call with S. aureus RN4220 is “active”.
With `Cc1ccc(S[C@]2(C(=O)NCCCN(C)C)CC(=O)N(Cc3ccccc3C(F)(F)F)[C@@H]2c2ccc(CO)cc2)cc1`, the cytotoxicity call with HSkMC and in the assay with HepG2 was “inactive” each time. The growth inhibition call in the assay on S. aureus RN4220 is “inactive”.
As for `COc1ccc(NC(=O)N(C)C[C@@H]2Oc3c(NC(=O)Nc4ccc(C(F)(F)F)cc4)cccc3C(=O)N([C@@H](C)CO)C[C@H]2C)cc1`, the cytotoxicity call in the assay with HSkMC and with HepG2 was “inactive” each time. Also, the growth inhibition call in the assay on S. aureus RN4220 is “inactive”.
Turning to `COc1cccc(S(=O)(=O)Nc2ccc3c(c2)[C@H]2C[C@@H](CC(=O)N4CCCCC4)O[C@@H](CO)[C@H]2O3)c1`, the cytotoxicity call in the assay on HSkMC (human skeletal muscle cells) and in the assay with HepG2 was “inactive” each time. Further, the growth inhibition call in the assay on S. aureus RN4220 is “inactive”.

Source of the values: the antibiotic and cytotoxicity screens of Wong et al. (2023).
